Test results from EPA's CvTdb concentration-time database.
The source gives many values for each of these; only a part stands here.

Key:
Test in all cases: concentration in plasma after dosing
Rat [1] = conditions: 2 h; dosed: 2-Hydroxy-4-methoxybenzophenone; 250 mg/kg; oral; Male; F344
Rat [2] = conditions: 2 h; dosed: 2-Hydroxy-4-methoxybenzophenone; 100 mg/kg; oral; Male; F344
Rat [3] = conditions: dosed: 2-Hydroxy-4-methoxybenzophenone, 100 mg/kg, oral, Male, F344
Rat [4] = conditions: 0.25 h; dosed: 2-Hydroxy-4-methoxybenzophenone; 8 mg/kg; iv; Female; F344
Rat [5] = conditions: dosed: 2-Hydroxy-4-methoxybenzophenone, 100 mg/kg, oral, Female, F344
Mouse [6] = conditions: 16 h; dosed: 2-Hydroxy-4-methoxybenzophenone; 500 mg/kg; oral; Male; B6C3F1
Mouse [7] = conditions: 2.5 min; dosed: 2-Hydroxy-4-methoxybenzophenone; 500 mg/kg; oral; Female; B6C3F1
Mouse [8] = conditions: 6 h; dosed: 2-Hydroxy-4-methoxybenzophenone; 250 mg/kg; oral; Male; B6C3F1
Rat [9] = conditions: 2 h; dosed: 2-Hydroxy-4-methoxybenzophenone; 100 mg/kg; oral; Male; F344; remark: listed apart in the source
Mouse [10] = conditions: 2.5 min; dosed: 2-Hydroxy-4-methoxybenzophenone; 500 mg/kg; oral; Female; B6C3F1; remark: listed apart in the source
Mouse [11] = conditions: 4 h; dosed: 2-Hydroxy-4-methoxybenzophenone; 50 mg/kg; iv; Male; B6C3F1
Rat [12] = conditions: 16 h; dosed: 2-Hydroxy-4-methoxybenzophenone; 500 mg/kg; oral; Female; F344
Mouse [13] = conditions: 1 h; dosed: 2-Hydroxy-4-methoxybenzophenone; 500 mg/kg; oral; Male; B6C3F1
Rat [14] = conditions: dosed: 2-Hydroxy-4-methoxybenzophenone, 100 mg/kg, oral, Female, F344; remark: listed apart in the source
Rat [15] = conditions: 16 h; dosed: 2-Hydroxy-4-methoxybenzophenone; 500 mg/kg; oral; Male; F344
Mouse [16] = conditions: dosed: 2-Hydroxy-4-methoxybenzophenone, 100 mg/kg, oral, Male, B6C3F1
Mouse [17] = conditions: 6 h; dosed: 2-Hydroxy-4-methoxybenzophenone; 500 mg/kg; oral; Male; B6C3F1
Mouse [18] = conditions: 0.5 h; dosed: 2-Hydroxy-4-methoxybenzophenone; 250 mg/kg; oral; Female; B6C3F1
Rat [19] = conditions: 16 h; dosed: 2-Hydroxy-4-methoxybenzophenone; 8 mg/kg; iv; Male; F344
Mouse [20] = conditions: 1 h; dosed: 2-Hydroxy-4-methoxybenzophenone; 250 mg/kg; oral; Male; B6C3F1
Mouse [21] = conditions: 4 h; dosed: 2-Hydroxy-4-methoxybenzophenone; 50 mg/kg; iv; Male; B6C3F1; remark: listed apart in the source
Mouse [22] = conditions: 5 min; dosed: 2-Hydroxy-4-methoxybenzophenone; 250 mg/kg; oral; Female; B6C3F1
Mouse [23] = conditions: 7 h; dosed: 2-Hydroxy-4-methoxybenzophenone; 250 mg/kg; oral; Female; B6C3F1
Mouse [24] = conditions: 0.5 h; dosed: 2-Hydroxy-4-methoxybenzophenone; 250 mg/kg; oral; Male; B6C3F1
Rat [25] = conditions: dosed: 2-Hydroxy-4-methoxybenzophenone, 100 mg/kg, oral, Female, F344; remark: listed apart in the source
Mouse [26] = conditions: 5 min; dosed: 2-Hydroxy-4-methoxybenzophenone; 50 mg/kg; iv; Female; B6C3F1
Mouse [27] = conditions: 4 h; dosed: 2-Hydroxy-4-methoxybenzophenone; 500 mg/kg; oral; Male; B6C3F1
Rat [28] = conditions: dosed: 2-Hydroxy-4-methoxybenzophenone, 8 mg/kg, iv, Female, F344
Rat [29] = conditions: dosed: Perfluorohexanoic Acid, 40 mg/kg, Male, F344
Rat [30] = conditions: dosed: Perfluorohexanoic Acid, 160 mg/kg, oral, Male, Harlan Sprague Dawley
Rat [31] = conditions: dosed: Perfluorohexanoic Acid, 160 mg/kg, oral, Female, Harlan Sprague Dawley
Rat [32] = conditions: dosed: Perfluorohexanoic Acid, 40 mg/kg, Male, F344; remark: listed apart in the source
Rat [33] = conditions: dosed: Perfluorohexanoic Acid, 40 mg/kg, oral, Female, Harlan Sprague Dawley
Rat [34] = conditions: 1 h; dosed: Perfluorohexanoic Acid; 40 mg/kg; Male; F344
Rat [35] = conditions: dosed: Perfluorohexanoic Acid, 40 mg/kg, Male, F344; remark: listed apart in the source
Rat [36] = conditions: 1 h; dosed: Perfluorohexanoic Acid; 40 mg/kg; oral; Male; Harlan Sprague Dawley

O=C(c1ccccc1)c1ccc(O)cc1O [2,4-Dihydroxybenzophenone]
Conditions | concentration in plasma [ng/mL]
Mouse [6] | 156
Mouse [7] | 262
Mouse [8] | 257
Mouse [10] | 133
Mouse [11] | 184
Mouse [13] | 1170
Rat [1] | 109
Rat [2] | 81.7
Rat [4] | 103
Rat [9] | 48
Rat [12] | 34.9

concentration in plasma [ng/mL]
Conditions | 1 h | 2 h | 5 min | 6 h
Rat [3] | 176 | – | – | 41.8
Rat [5] | – | 78 | 47.2 | –

COc1ccc(C(=O)c2ccccc2)c(O)c1 [2-Hydroxy-4-methoxybenzophenone]
Conditions | concentration in plasma [ng/mL]
Mouse [16], 0.5 h | 53.7
Mouse [16], 0.75 h | 52.2
Mouse [16], 1 h | 36.8
Mouse [16], 1.5 h | 30.2
Mouse [16], 4 h | 19.9
Mouse [16], 5 h | 18.2
Mouse [16], 5 min | 26.1
Mouse [16], 6 h | 14.3
Rat [14], 1 h | 512
Rat [14], 6 h | 9.43
Rat [25], 1.5 h | 74.9
Rat [25], 8 h | 5.22
Rat [28], 0.5 h | 687
Rat [28], 6 h | 18.6

Conditions | concentration in plasma [ng/mL]
Mouse [17] | 28.6
Mouse [18] | 252
Mouse [20] | 125
Mouse [21] | 94.3
Mouse [22] | 66.5
Mouse [23] | 21
Mouse [24] | 246
Mouse [26] | 20100
Mouse [27] | 80.4
Rat [15] | 28.5
Rat [19] | 5.98

O=C(O)C(F)(F)C(F)(F)C(F)(F)C(F)(F)C(F)(F)F [Perfluorohexanoic Acid]
Conditions | concentration in plasma [ng/mL]
Rat [29], 3 h | 19600
Rat [29], 5 min | 268000
Rat [30], 1 h | 223000
Rat [30], 24 h | 3440
Rat [31], 0.25 h | 131000
Rat [31], 6 h | 21100
Rat [32], 0.75 h | 74800
Rat [32], 24 h | 267
Rat [33], 0.75 h | 27000
Rat [33], 12 h | 135
Rat [35], 3 h | 1210
Rat [35], 5 min | 270000

Conditions | concentration in plasma [ng/mL]
Rat [34] | 45200
Rat [36] | 36400
